Test results taken from the supplement of paper PMC4604168 (melanoma cell lines).
Some of the results follow. Most values come without repeats; read them as rough.

Tested on: MZ2-MEL
Test: cell count relative to DMSO control; melanoma cells; higher = more viable cells
Details: library dose: standard library concentration; 72 h
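Note: cells treated in 1,536-well plates, then fixed and DAPI-stained, with nuclei counted from automated high-throughput microscope images.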

Row | SMILES | cell count
1 | Cc1ccc(NC(=O)c2cccc(N(C)C)c2)cc1NC(=O)c1ccc(O)cc1 + COc1cc(N2CCC(N3CCN(C)CC3)CC2)ccc1Nc1ncc(Cl)c(Nc2ccccc2S(=O)(=O)C(C)C)n1 [NVP-TAE684] (first compound 10 µM, partner dose 0.4 µM) | 74.7%
2 | COc1cc2c(Oc3ccc4[nH]c(C)cc4c3F)ncnc2cc1OCCCN1CCCC1 [cediranib] + COc1cc(N2CCC(N3CCN(C)CC3)CC2)ccc1Nc1ncc(Cl)c(Nc2ccccc2S(=O)(=O)C(C)C)n1 [NVP-TAE684] (first compound 2 µM, partner dose 0.4 µM) | 85.8%
3 | COc1cc2c(Oc3ccc4[nH]c(C)cc4c3F)ncnc2cc1OCCCN1CCCC1 [cediranib] + Cn1cc(/C=C2\C(=O)Nc3cccnc32)c2ccccc21 [GW441756] (first compound 2 µM, partner dose 2 µM) | 85.4%
4 | COc1cc2c(Oc3ccc4[nH]c(C)cc4c3F)ncnc2cc1OCCCN1CCCC1 [cediranib] + Oc1cc(-c2nc(-c3ccccc3)[nH]c2-c2ccncc2)ccc1Cl [L779450] (first compound 2 µM, partner dose 1 µM) | 97.5%
5 | NC(=O)c1ccc(N(C(N)=O)c2c(F)cccc2F)nc1-c1ccc(F)cc1F + Cc1nc(Nc2ncc(C(=O)Nc3c(C)cccc3Cl)s2)cc(N2CCN(CCO)CC2)n1 [dasatanib] (first compound 2 µM, partner dose 0.02 µM) | 54%
6 | CC(C)(C)c1cnc(CSc2cnc(NC(=O)C3CCNCC3)s2)o1 + c1cc(-c2cnn3cc(-c4ccc(OCCN5CCCCC5)cc4)cnc23)ccn1 [Dorsomorphin] (first compound 0.05 µM, partner dose 2 µM) | 19.9%
7 | CC(C)(C)c1cnc(CSc2cnc(NC(=O)C3CCNCC3)s2)o1 + C[C@@H]1CCN(C(=O)CC#N)C[C@@H]1N(C)c1ncnc2[nH]ccc12 [CP690550] (first compound 0.05 µM, partner dose 5 µM) | 90.7%
8 | CC(C)(C)c1cnc(CSc2cnc(NC(=O)C3CCNCC3)s2)o1 + Oc1nc(-c2ccc(C(F)(F)F)cc2)nc2c1CSCC2 [XAV939] (first compound 0.05 µM, partner dose 10 µM) | 79.1%
9 | NC(=O)c1ccc(N(C(N)=O)c2c(F)cccc2F)nc1-c1ccc(F)cc1F + C=C(c1ccc(C(=O)O)cc1)c1cc2c(cc1C)C(C)(C)CCC2(C)C [Bexarotene] (first compound 2 µM, partner dose 10 µM) | 91.8%
10 | CCc1ccc(CCOc2ccc(CC3SC(=O)NC3=O)cc2)nc1 (stereo unspecified) [pioglitazone] + N#Cc1c(O)c2c(-c3ccc(-c4ccccc4O)cc3)csc2[nH]c1=O [A769662] (first compound 10 µM, partner dose 10 µM) | 104%
11 | CC(C)(C)c1cnc(CSc2cnc(NC(=O)C3CCNCC3)s2)o1 + Cc1cc([N+](=O)[O-])ccc1NS(=O)(=O)c1cc(Cl)ccc1Cl [FH535] (first compound 0.05 µM, partner dose 5 µM) | 58.4%
12 | NC(=O)c1ccc(N(C(N)=O)c2c(F)cccc2F)nc1-c1ccc(F)cc1F + CN(c1ncccc1CNc1nc(Nc2ccc3c(c2)CC(=O)N3)ncc1C(F)(F)F)S(C)(=O)=O [PF562271] (first compound 2 µM, partner dose 0.4 µM) | 83.6%
13 | Cc1ccc(NC(=O)c2cccc(N(C)C)c2)cc1NC(=O)c1ccc(O)cc1 + Cc1cc(N2CCOCC2)cc2[nH]c(-c3c(NC[C@@H](O)c4cccc(Cl)c4)cc[nH]c3=O)nc12 [BMS536924] (first compound 10 µM, partner dose 1 µM) | 120%
14 | Cc1ccc(NC(=O)c2cccc(N(C)C)c2)cc1NC(=O)c1ccc(O)cc1 + Cn1cc(/C=C2\C(=O)Nc3cccnc32)c2ccccc21 [GW441756] (first compound 10 µM, partner dose 2 µM) | 83.3%
15 | CC(C)(C)c1cnc(CSc2cnc(NC(=O)C3CCNCC3)s2)o1 + OCCn1cc(-c2cnc3nnn(Cc4ccc5ncccc5c4)c3n2)cn1 [PF04217903] (first compound 0.05 µM, partner dose 5 µM) | 94.7%
16 | NC(=O)c1ccc(N(C(N)=O)c2c(F)cccc2F)nc1-c1ccc(F)cc1F + CCCCCCCCc1ccc(CCC(N)(CO)CO)cc1 [fingolimod] (first compound 2 µM, partner dose 10 µM) | 1.99%
